Experiment [1] deals with Receptor of advanced glycosylation end-product (RAGE) (human (endogenous in SCC25 and FaDu)) (UniProt Q15109). Briefly: co-IP; co-immunoprecipitation of extracellular ISG15 or the positive control HMGB1 with CD11a and RAGE (Fig. S6H); cells, constructs and IP antibody not told in the text shown.
Experiment [2] has the same target. Briefly: co-IP; SCC25 and FaDu cells treated with recombinant GST-ISG15 alone or with HMGB1 for 2 h; GST-ISG15 pulled down by IP (Protein A/G magnetic beads with antibody, 4 C overnight); western blot for RAGE and CD11a; only the binder purified.
For experiment [3] the target is unchanged. Briefly: co-IP; sequential IP: FaDu cells treated with recombinant His-ISG15, surface proteins biotinylated (EZ-Link Sulfo-NHS-SS-Biotin; un-biotinylated cells as control), lysed; anti-His magnetic beads 4 C overnight, glycine elution (pH 2.5), then streptavidin magnetic beads 4 C 4 h; western blot for CD11a, TLR2 and RAGE; only the binder purified.
Experiment [4] addresses Toll-like receptor 2 (human (endogenous in FaDu)) (UniProt O60603). The description is as above.
Experiment [5] concerns the target Receptor of advanced glycosylation end-product (RAGE) (human (endogenous in SCC25 and FaDu)) (UniProt Q15109). Put plainly: co-IP; SCC25 and FaDu cells treated with recombinant His-ISG15 for 2 h (SCC25 also pre-treated with 10 uM FPS-ZM1 for 1 h); His-ISG15 pulled down by IP; western blot for RAGE and CD11a; only the binder purified.
Experiment [6] has the same target. Put plainly: co-IP; same system as a4 with the targets of IP and western blot switched: CD11a and RAGE pulled down, respectively, His-ISG15 detected by western blot (Fig. S6I); only the binder purified.
Experiment [7] has as its target T1, CD11a (integrin receptor LFA-1) (human (endogenous in SCC25 and FaDu)) (UniProt P20701).
T1 sequence: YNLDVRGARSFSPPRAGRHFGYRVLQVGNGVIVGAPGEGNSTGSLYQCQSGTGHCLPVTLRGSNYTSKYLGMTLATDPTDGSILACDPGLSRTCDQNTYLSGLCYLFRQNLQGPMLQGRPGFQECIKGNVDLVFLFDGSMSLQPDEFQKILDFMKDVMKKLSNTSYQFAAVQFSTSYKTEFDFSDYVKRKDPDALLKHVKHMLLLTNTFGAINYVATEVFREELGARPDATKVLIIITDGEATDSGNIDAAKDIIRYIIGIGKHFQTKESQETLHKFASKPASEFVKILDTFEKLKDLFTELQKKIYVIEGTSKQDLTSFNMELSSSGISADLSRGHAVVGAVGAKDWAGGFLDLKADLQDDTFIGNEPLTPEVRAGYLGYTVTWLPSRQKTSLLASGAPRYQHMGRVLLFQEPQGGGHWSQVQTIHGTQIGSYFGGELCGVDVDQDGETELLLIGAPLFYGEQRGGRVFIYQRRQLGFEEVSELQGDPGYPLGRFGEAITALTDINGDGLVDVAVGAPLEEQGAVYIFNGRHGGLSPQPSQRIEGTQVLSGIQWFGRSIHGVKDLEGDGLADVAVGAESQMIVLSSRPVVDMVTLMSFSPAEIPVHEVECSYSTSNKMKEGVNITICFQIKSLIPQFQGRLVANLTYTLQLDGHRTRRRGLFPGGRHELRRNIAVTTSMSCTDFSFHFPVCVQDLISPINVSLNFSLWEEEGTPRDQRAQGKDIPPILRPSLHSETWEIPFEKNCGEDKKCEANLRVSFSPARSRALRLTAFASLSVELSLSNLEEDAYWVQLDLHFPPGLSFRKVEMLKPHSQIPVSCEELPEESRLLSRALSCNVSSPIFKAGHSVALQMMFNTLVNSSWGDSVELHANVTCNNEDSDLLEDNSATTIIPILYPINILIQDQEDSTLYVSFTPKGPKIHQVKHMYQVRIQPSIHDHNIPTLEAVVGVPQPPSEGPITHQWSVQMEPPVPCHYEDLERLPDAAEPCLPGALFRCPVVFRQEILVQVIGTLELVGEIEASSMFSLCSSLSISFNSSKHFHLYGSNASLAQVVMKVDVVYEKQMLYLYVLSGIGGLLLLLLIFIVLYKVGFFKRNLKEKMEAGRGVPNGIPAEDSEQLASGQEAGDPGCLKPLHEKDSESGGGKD
Put plainly: co-IP; co-immunoprecipitation of extracellular ISG15 or the positive control HMGB1 with CD11a and RAGE (Fig. S6H); cells, constructs and IP antibody not told in the text shown.

Sequences of proteins named here, by UniProt entry; tags and fusion partners are left off. A change or cut given only in a name is not applied to a line headed by its entry. Residues count along the entry.
UniProt Q15109, residues 23-404: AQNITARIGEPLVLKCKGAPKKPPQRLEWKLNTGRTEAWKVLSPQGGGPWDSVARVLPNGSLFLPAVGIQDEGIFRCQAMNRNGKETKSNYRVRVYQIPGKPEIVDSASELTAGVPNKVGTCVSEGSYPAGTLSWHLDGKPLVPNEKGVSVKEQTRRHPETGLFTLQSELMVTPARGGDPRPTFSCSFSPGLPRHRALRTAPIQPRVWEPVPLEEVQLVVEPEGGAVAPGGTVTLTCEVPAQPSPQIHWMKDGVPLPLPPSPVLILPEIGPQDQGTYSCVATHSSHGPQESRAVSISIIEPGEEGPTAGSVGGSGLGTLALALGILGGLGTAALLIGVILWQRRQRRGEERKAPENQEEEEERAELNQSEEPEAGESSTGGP
UniProt O60603: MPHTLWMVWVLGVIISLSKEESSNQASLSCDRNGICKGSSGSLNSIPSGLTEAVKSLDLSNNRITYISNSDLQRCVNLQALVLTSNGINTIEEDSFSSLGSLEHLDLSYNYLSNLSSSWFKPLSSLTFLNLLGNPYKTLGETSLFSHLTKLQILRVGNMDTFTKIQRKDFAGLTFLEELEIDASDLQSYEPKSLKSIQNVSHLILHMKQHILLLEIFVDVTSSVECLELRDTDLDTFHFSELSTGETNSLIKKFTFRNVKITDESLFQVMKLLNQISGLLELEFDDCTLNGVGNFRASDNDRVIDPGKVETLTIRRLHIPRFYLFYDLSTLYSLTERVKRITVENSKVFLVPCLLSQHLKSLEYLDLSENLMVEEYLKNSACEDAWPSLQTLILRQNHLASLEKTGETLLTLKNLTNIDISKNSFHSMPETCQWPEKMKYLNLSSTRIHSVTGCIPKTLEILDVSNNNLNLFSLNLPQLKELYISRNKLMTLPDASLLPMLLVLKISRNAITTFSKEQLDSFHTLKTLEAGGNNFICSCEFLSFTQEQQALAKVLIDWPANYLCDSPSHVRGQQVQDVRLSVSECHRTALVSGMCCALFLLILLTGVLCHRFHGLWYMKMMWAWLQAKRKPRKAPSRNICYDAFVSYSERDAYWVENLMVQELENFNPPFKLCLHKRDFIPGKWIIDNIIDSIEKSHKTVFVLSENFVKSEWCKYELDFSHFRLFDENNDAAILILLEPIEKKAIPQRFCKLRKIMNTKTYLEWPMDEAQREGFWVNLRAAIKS
UniProt P05161, residues 1-157: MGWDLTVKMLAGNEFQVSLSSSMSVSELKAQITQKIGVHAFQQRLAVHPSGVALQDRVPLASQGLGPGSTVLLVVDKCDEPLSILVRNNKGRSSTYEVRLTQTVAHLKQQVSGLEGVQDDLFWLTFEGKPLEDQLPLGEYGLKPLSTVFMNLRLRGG
UniProt P09429: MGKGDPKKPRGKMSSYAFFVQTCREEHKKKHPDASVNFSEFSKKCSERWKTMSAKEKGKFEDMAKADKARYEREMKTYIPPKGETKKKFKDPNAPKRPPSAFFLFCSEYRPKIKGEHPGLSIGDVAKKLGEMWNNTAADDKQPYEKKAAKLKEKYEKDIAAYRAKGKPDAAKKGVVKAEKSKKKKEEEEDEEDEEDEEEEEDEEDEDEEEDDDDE

No constants are given. Whether binding was seen depends on the method and setting. In cells and extracts the contact can be indirect. Some binding calls cover weakened binding; strength is not graded here.

On to “Extracellular ISG15 (as used in the co-IP of Fig. S6H) (from UniProt P05161 1-157)”, for which, in experiment [1], the binding result is “binds”.
Consider “Human recombinant GST-ISG15 (from UniProt P05161 1-157)”, for which the binding result in experiment [2] is given as “binds”.
In the case of “Human recombinant His6-ISG15 (from UniProt P05161 1-157)”, the binding result in experiment [3] is “binds”; in experiment [4], “no binding”; in experiment [5], “binds”; in experiment [6] it was “binds”.
As for “Recombinant human HMGB1 (His Tag) (from UniProt P09429 1-215)”, the binding entry in experiment [1] was “binds”; in experiment [7], “no binding”.

For the origin of these results see paper PMC11200990.
